Test results reported in PMC4336329 (PLoS ONE, 2015).
Screen size: about 310,000 compounds; about 2,200 (0.71%) showed an effect of 50% or more. Effects have a minus sign here. This is one part of the list.

biological target: human ether-à-go-go-related gene (hERG) potassium channel (human, UniProt Q12809); test: primary screen, population patch clamp on CHO cells stably expressing hERG
Sequence (Q12809 whole entry, looked up): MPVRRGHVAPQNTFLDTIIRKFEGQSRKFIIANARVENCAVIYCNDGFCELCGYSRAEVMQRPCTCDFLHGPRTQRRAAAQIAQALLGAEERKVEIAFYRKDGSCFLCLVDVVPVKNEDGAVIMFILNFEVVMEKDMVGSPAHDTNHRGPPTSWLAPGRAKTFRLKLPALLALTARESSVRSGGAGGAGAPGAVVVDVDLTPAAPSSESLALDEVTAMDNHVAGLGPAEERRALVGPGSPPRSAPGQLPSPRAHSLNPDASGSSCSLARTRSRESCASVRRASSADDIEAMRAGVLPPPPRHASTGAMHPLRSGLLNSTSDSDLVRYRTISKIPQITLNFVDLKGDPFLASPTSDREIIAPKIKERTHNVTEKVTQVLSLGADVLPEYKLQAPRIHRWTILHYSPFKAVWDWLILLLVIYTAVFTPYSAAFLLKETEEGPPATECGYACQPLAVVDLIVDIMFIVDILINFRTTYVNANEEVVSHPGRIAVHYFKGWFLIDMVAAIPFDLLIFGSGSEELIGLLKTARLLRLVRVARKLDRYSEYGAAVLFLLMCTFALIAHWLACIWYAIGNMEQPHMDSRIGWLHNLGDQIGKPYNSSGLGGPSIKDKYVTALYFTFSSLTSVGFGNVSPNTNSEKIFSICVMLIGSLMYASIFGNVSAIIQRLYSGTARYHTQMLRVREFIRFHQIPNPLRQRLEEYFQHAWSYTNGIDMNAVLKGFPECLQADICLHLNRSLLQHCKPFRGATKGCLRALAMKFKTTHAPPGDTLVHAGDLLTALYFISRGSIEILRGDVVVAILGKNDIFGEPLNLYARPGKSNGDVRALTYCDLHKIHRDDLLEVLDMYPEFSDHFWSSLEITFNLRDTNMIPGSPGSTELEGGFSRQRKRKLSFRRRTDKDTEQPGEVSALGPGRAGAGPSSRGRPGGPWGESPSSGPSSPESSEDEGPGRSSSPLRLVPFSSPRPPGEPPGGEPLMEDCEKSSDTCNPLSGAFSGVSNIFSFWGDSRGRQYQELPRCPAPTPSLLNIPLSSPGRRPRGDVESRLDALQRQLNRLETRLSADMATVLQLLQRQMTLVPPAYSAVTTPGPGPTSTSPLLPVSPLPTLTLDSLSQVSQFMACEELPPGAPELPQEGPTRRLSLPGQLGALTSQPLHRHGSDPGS

| Structure (SMILES) | hERG current change (%, negative = inhibition) at 1uM [%] |
| --- | --- |
| NS(=O)(=O)c1ccc(NC(=O)CN2CCc3ccccc32)cc1 | 10.9 |
| CCNCCNc1ccc(Cl)cc1[N+](=O)[O-].Cl | 5.74 |
| Cl.c1ccc(Nc2nc(NCC3CCCO3)c3ccccc3n2)cc1 (stereo not shown) | 3.9 |
| CCC(CC)C(=O)c1c[nH]c(C(=O)NCc2cccs2)c1 | 16.4 |
| Cc1oc(-c2ccccc2Cl)nc1CS(=O)CC(=O)NCc1ccco1 (stereo not shown) | 8.58 |
| CCNc1nc(NC(C)(C)C)nc(N(C#N)CC)n1 | -20.9 |
| CCCc1cc(=O)[nH]c(SCC(=O)c2c(N)n(C)c(=O)n(C)c2=O)n1 | 8.44 |
| CCOc1ccc(N=C2NC(=O)S/C2=C\c2ccc(OC)cc2)cc1 | 5.36 |
| CN=C1c2cc3c(Br)c(OC)ccc3n2CCN1C.Cl | -33.6 |
| COc1ccc(OC)c2c1sc(=NC(=O)C(C)C)n2C | 14 |
| O=C(CSc1nccn1-c1cccc(Cl)c1)Nc1ccc2c(c1)OCCO2 | 1.39 |
| COc1cc(C(=O)NCCSc2ccccc2)cc(OC)c1OC | 13.6 |
| O=C(CNc1ccc(Cl)cc1)c1ccc(Br)cc1 | 3.51 |
| CSc1ccc(S(=O)(=O)NCC(=O)OC2CCOC2=O)cc1[N+](=O)[O-] (stereo not shown) | 11.3 |
| O=C(CCC1CCCCC1)NCCS(=O)(=O)N1CCN(c2ccccc2F)CC1 | 14.1 |
| CC(C)C[C@H](NC(=O)OC(C)(C)C)c1nnc(SCC(=O)Nc2ccc(Br)cc2)o1 | -6.98 |
| COC(=O)c1cc(S(=O)(=O)N(Cc2ccccc2)C(C)(C)C)c[nH]1 | 3.64 |
| CCn1c(SCC(=O)NC2CCCCC2)nc2ccccc2c1=O | 2.57 |
| CCC(=O)Nc1ccc2nc(C3CC3)n(Cc3ccc(C(C)(C)C)cc3)c(=O)c2c1 | 12.8 |
| CCN1C(=NCCc2ccccn2)N[C@@H](c2cccc(F)c2)C(C(=O)OC)=C1C | -30 |
| Cc1ccc(-c2cc(C(F)F)n3ncc(C(=O)N4CCCCC4c4cccnc4)c3n2)cc1 (stereo not shown) | 4.3 |
| Cc1ccc(C)n1NC(=O)c1ccc(Cl)cc1 | 1.64 |
| CC(C)NC(=O)/C=C/C(=O)O | 11 |

| Structure (SMILES) | hERG current change (%, negative = inhibition) at 1uM [%] |
| --- | --- |
| CCN1CCN(CC(=O)Nc2sc3c(c2C#N)CCC3)CC1 | 9.36 |
| Cc1nnsc1C(=O)NNC(=O)c1cccc2ccccc12 | 9.5 |
| CCOc1ccccc1Nc1ccc(C(=O)O)cc1N | 3.45 |
| Nn1c(-c2cccc(Br)c2)n[nH]c1=S | 12.3 |
| CCSc1nnc(NC(=O)/C=C/c2ccc3c(c2)OCO3)s1 | 17.1 |
| Cc1nc(NC(=O)c2ccc(Cl)cc2)nc2cc3c(cc12)OCO3 | 9.92 |
| Cn1c(=O)c2c([nH]c(OCc3ccc(Cl)cc3Cl)[n+]2Cc2ccc(F)cc2)n(C)c1=O | 6.03 |
| CC(Oc1ccc(F)cc1)C(=O)NN (stereo not shown) | 1.52 |
| CCC1CCCCN1CC(=O)c1ccc(OC(F)F)cc1 (stereo not shown) | -80.2 |
| CCCCn1c(=O)c(C(=O)Nc2ccccc2N)c(O)c2ccccc21 | 16 |
| Cn1nc(C(F)(F)F)cc1-c1ccc(S(N)(=O)=O)s1 | 13.1 |
| CCOC(=O)CSc1nc(C)c(C(C)=O)cc1C#N | -6.78 |
| Clc1cccc(CN2CCc3c([nH]c4ccccc34)C2)c1Cl | 6.09 |
| O=C(COc1ccc(/C=N/NS(=O)(=O)c2ccccc2)cc1)NCCc1ccccc1 | 15.6 |
| CCOc1ccc(CCNC(=O)CS(=O)(=O)Cc2nc(-c3cccc(OC)c3)oc2C)cc1 | 8.47 |
| CC(=O)Nc1ccc(NC(=O)c2ccccc2Sc2ccc([N+](=O)[O-])cc2Cl)cc1 | 6.31 |
| COc1cccc(C(=O)COC(=O)c2cccs2)c1 | 16.7 |
| O=C(Cn1ncc2ccccc21)N1CCC2(CC1)OCCO2 | 9.67 |
| Cc1ccc(CCNC(=O)c2nnn(-c3cccc(C)c3)c2N)cc1 | 2.44 |
| CC1(C)C2CC=C(/C=N/NC(=O)c3ccccc3Br)C1C2 (stereo not shown) | 4.48 |
| O=C(NCc1ccccc1)C1=C[C@@H](c2ccc(C(F)(F)F)cc2)C[C@@H](OCCCCO)O1 | -0.78 |
| CN=C(Nc1cccc(OC)c1)SC1CC(=O)N(c2ccc(C(=O)O)cc2)C1=O (stereo not shown) | 11 |
| CN1CCc2c(sc(NC(=O)c3ccc(C(=O)c4ccccc4)cc3)c2C(N)=O)C1.Cl | 13.2 |

| Structure (SMILES) | hERG current change (%, negative = inhibition) at 1uM [%] |
| --- | --- |
| CSc1ccc(/C=C(\NC(=O)c2ccccc2)C(=O)NN)cc1 | 9.43 |
| Cc1noc(COc2ccccc2OCc2onc(C)c2Cl)c1Cl | 9.02 |
| Cc1ccccc1NC(=O)CCN1CCN(Cc2ccccc2)CC1 | -3.88 |
| CSCCC(NC(=O)c1ccccc1)C(=O)NCCCn1nc(C)cc1C (stereo not shown) | 4.94 |
| COc1ccc(C(=O)c2ccccc2Cl)cc1OC | -14.5 |
| Cc1ccc(S(=O)(=O)NCc2ccc(C(=O)N3CCN(c4ccccc4)CC3)cc2)cc1 | 3.82 |
| CCOC(=O)c1sc2nc3c(cc2c1N)COC(C)(CC)C3 (stereo not shown) | 4.24 |
| CCCN(C(=O)CSCC(=O)Nc1ccc(OC)cc1)c1c(N)n(Cc2ccccc2)c(=O)[nH]c1=O | -9.55 |
| O=C(NCCc1ccccc1)c1ccc(Cl)cc1[N+](=O)[O-] | 7.03 |
| Cc1ccc(C)c(N2CCN(S(=O)(=O)c3c(C(=O)N4CCCCC4)c(C)n(C)c3C)CC2)c1 | 11.8 |
| CCOC(=O)NNc1ccccc1 | 10.5 |
| O=C(Nc1nccs1)c1nc[nH]c1C(=O)N1CCc2ccccc2C1 | 3.14 |
| O=C(O)c1cccc(Nc2ncnc3sccc23)c1 | 16.5 |
| Cc1cc(=O)n(CC(=O)O)c2ccccc12 | 12.6 |
| O=C(CCN1CCN(c2ccccc2)CC1)N/N=C/c1ccccc1O | 9.66 |
| Cc1ccc(-c2nc3ccc([N+](=O)[O-])cc3[nH]2)cc1 | 2.31 |
| C=C(Br)Cn1c(CC(C)C)nc2ccccc21 | 3.82 |
| CC(C)Oc1cccc(C(=O)C2CCCN(C(=O)c3ccsc3)C2)c1 (stereo not shown) | 0.833 |
| COCCN(C(=O)COC(=O)c1ccccc1Nc1ccccc1)c1c(N)n(Cc2ccccc2)c(=O)[nH]c1=O | -19.1 |
| CC(C)Oc1ccc(C(=O)N(Cc2ccco2)C2CCS(=O)(=O)C2)cc1 (stereo not shown) | 6.13 |
| CCn1c(/C=C/c2ccc(O)cc2)nc2ccccc2c1=O | 15.8 |
| Cc1ccccc1N1CCN(C2CCCN(C(=O)CCC(F)(F)F)C2)CC1 (stereo not shown) | 2.12 |
| O=C(COC(=O)CCCC1=NS(=O)(=O)c2ccccc2N1)Nc1ccc(Br)cc1 | 7.43 |

| Structure (SMILES) | hERG current change (%, negative = inhibition) at 1uM [%] |
| --- | --- |
| CCOC(=O)c1ccc(Oc2nc(NC)nc(Nc3ccccc3)n2)cc1 | -19 |
| COc1ccc(CNC(=O)CCC(=O)Nc2nnc(C(C)C)s2)cc1 | 4.59 |
| COc1ccc(N(C)C(=O)Cc2c(C(=O)O)n(C)c3ccccc23)cc1 | 21.5 |
| O=C(c1ccco1)N1CCN=C1SCc1ccccc1Cl | -6.94 |
| O=C(NC(=S)Nc1ccc(Cc2ccncc2)cc1)c1ccccc1Cl | -0.467 |
| COc1cc(/C=C/C(=O)OCC(=O)Nc2ccc(C)cc2[N+](=O)[O-])ccc1O | -3.44 |
| Cc1ccc(/C=N/NC(=O)COc2ccc(Cl)c(C)c2)o1 | 29.9 |
| Cc1ccc(NC(=O)CCc2c(C)nn(-c3ccc(N4CCOCC4)nn3)c2C)cc1F | 6.28 |
| CCN(CC)C(=O)Cn1cc(C=C2C(=O)N(C)C(=O)N(C)C2=O)c2ccccc21 | 14.9 |
| Cc1ccc(NC(=O)CCc2ccc(C)o2)c(C)c1 | 9.54 |
| Cc1cc(OC(C)C(=O)NCc2ccccn2)c2c(C)c(Cc3ccccc3)c(=O)oc2c1 (stereo not shown) | 12.1 |
| CC1(C)CC(CCN(Cc2ccccc2)C(=O)c2ccco2)(c2ccccc2)CCO1 (stereo not shown) | 10.7 |
| CN1CCCN(C(=O)c2cccc3ccccc23)CC1 | 6.22 |
| O=C(O)CCC(=O)Nc1cccc(-c2csc(-c3ccccc3)n2)c1 | 4.25 |
| Cc1nc2ccn(Cc3ccccc3)c(=O)c2cc1C(=O)N1CCN(c2ccc(F)cc2)CC1 | -43.2 |
| Cl.OC(CNC1CCCC1)COc1ccccc1Br (stereo not shown) | 16.8 |
| O=C1CN(CC(=O)N2CCOCC2)c2ccccc2O1 | 13.2 |
| O=C(Nc1ccc(SC(F)F)cc1)c1ccccc1F | 7.84 |
| Fc1ccc(Nc2nc(Oc3ccccc3F)nc(N3CCCC3)n2)cc1 | 13.2 |
| CCCn1nc2ccccc2c1P(=O)(N1CCOCC1)N1CCOCC1 | -0.888 |
| Cc1ccc2nc(N=C(N)N)nc(C)c2c1 | 15.4 |
| CCCCN(C)C(=S)Nc1ccc(Oc2ccccc2)cc1 | 12.6 |
